In PubChem BioAssay AID588453 (National Center for Advancing Translational Sciences (NCATS), 2011):
Screen size: about 390,000 compounds; about 4,000 (1%) were called active. This list was built around the results that the source calls inconclusive (neither active nor inactive); the mix of calls is not that of the screen. Calls follow the shape of the dose curve; as a rule, active = well fitted inhibition curve with a large enough effect; inconclusive = small, poorly fitted or top-dose-only effect; inactive = no such curve, though single readings can be large or run the other way. Potencies of inconclusive entries are doubtful fits and often do not repeat.

Molecular target: Thioredoxin reductase 1, cytoplasmic (Rattus norvegicus) (UniProt O89049)
Chain of UniProt O89049 (O89049 whole entry, looked up): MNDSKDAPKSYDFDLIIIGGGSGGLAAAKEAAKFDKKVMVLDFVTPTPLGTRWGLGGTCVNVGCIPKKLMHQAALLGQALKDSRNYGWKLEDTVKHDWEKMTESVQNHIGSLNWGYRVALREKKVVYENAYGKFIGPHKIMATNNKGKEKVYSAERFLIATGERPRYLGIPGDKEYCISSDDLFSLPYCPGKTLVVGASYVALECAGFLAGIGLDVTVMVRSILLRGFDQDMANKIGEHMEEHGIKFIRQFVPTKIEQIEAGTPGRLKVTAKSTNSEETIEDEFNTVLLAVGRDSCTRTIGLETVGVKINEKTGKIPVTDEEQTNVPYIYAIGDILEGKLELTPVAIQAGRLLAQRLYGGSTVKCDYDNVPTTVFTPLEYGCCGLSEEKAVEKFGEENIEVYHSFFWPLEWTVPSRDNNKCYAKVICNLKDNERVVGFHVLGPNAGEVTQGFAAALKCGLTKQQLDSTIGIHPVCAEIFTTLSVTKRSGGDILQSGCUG
Test: qHTS Assay for Inhibitors of Mammalian Selenoprotein Thioredoxin Reductase 1 (TrxR1): qHTS; also: nearly all actives have a fitted effect of over 65% in size
Conditions: recombinant rTrxR1, NADPH fluorescence consumption, selenite substrate; series mostly up to 114 µM
How it was run: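 Rat TrxR1 (90 nM in the dispensed reagent) was pre-reduced with 400 uM NADPH for 5 min at room temperature, then incubated with compound for 15 min. After 400 uM selenite was added, NADPH fluorescence (Ex 340/Em 450 nm) was followed for 8 min.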
Potency is read from the fitted curve at half-maximal effect; tags tell the direction and shape of the fitted curve.

| Structure (SMILES) | Potency |
| --- | --- |
| Cc1ccc(/C=N/NC(=O)c2ccncc2)o1 | inconclusive: 70.8 µM [inhibitor, partial curve, poor fit] |
| CCOC(=O)C#CC(CCc1ccccc1)OS(N)(=O)=O (stereo unspecified) | inconclusive: 10 µM [inhibitor, partial curve, poor fit] |
| CSc1cccc(NC(=O)/C=C/c2ccco2)c1 | active: 14.1 µM |
| CCOc1ccc(OCC(=O)c2c(O)c3ccccc3oc2=O)cc1 | inactive |
| O=C(NC(NNc1ccc([N+](=O)[O-])cc1)(C(F)(F)F)C(F)(F)F)c1ccc(Cl)cc1 | inconclusive: 2.82 µM [inhibitor, full curve] |
| CC(C)NC(=O)COc1coc(CN2CCN(C(=O)c3ccco3)CC2)cc1=O | inconclusive: 79.4 µM [inhibitor, single point] |
| CCC(C)(C)NC(=O)CN(CC1CCCO1)C(=O)CNS(=O)(=O)c1ccccc1 (stereo unspecified) | inconclusive: 39.8 µM [inhibitor, single point] |
| CCc1nc(N2CCN(C(=O)c3ccco3)CC2)c2c3c(sc2n1)CCCC3 | inconclusive: 25.1 µM [inhibitor, single point] |
| CC(C)n1c(=NC(=O)c2ccco2)c(C#N)cc2c(=O)n3ccccc3cc21 | inconclusive: 25.1 µM [inhibitor, single point] |
| Cc1ccc(-n2c(Cc3cccs3)nnc2SCC(=O)Nc2ccc(F)c(F)c2)cc1 | inactive |
| Cc1ccc(S(=O)(=O)c2nc(-c3ccccc3)oc2NCCCN2CCOCC2)cc1 | inconclusive: 50.1 µM [inhibitor, partial curve] |
| CCC/C=C1/CCCOC(C(=O)NCc2ccc(C)o2)(C(F)(F)F)C1 (stereo unspecified) | active: 12.6 µM |
| COc1ccc(/C=C2/CCC(CN3CCOCC3)C2=O)cc1 (stereo unspecified) | active: 1.58 µM |
| C#CCOCCOCCOCCNc1nc(N2CCN(C(=O)CCCCCCCCCCNC(=O)Cn3cc(CCCCCN)nn3)CC2)nc(N2CCN(C(=O)CCCCCCCCCCNC(=O)Cn3cc(CCCCCN)nn3)CC2)n1 | active: 11.2 µM |
| COC(=O)c1ccc(C2/C(=C(/O)c3ccc(OC)cc3)C(=O)C(=O)N2Cc2ccco2)cc1 (stereo unspecified) | inconclusive: 39.8 µM [inhibitor, partial curve, poor fit] |
| CC[n+]1c(/C=C2/C=C(C)CC(C)(C)C2)sc2ccc(OC)cc21 | inconclusive: 22.4 µM [inhibitor, full curve, poor fit] |
| COC(=O)N/N=C\c1ccc(OC/C=C/c2ccccc2)c(OC)c1 | inactive |
| S=C(Nc1ccccc1)c1ccccn1 | inactive |
| CC(c1ccccc1)N(CCC(c1ccccc1)C1CCOC(C)(C)C1)C(=O)c1ccco1 (stereo unspecified) | inconclusive: 89.1 µM [inhibitor, single point] |
| O=C(NCc1ccco1)c1cccn2c(=O)c3c4c(sc3nc12)CCCC4 | inconclusive: 25.1 µM [inhibitor, partial curve, poor fit] |
| COc1ccc(N2C3=C(CC4=C2CC(C)(C)CC4=O)C(=O)CC(C)(C)C3)cc1 | inconclusive: 50.1 µM [inhibitor, partial curve, poor fit] |
| CCc1cccc(-n2c(=O)c3cccnc3n2CC(=O)Nc2ccccc2C(=O)OC)c1 | inactive |
| CC1=C(Nc2ccc(C(=O)O)cc2)C(=O)c2ccccc2C1=O | inconclusive: 39.8 µM [inhibitor, partial curve, poor fit] |
| CCc1ccc(N(C(C)=O)c2nc(CCl)cs2)cc1 | inconclusive: 44.7 µM [inhibitor, partial curve, poor fit] |

| Structure (SMILES) | Potency |
| --- | --- |
| COc1ccc(OC)c(NC(=O)c2nc(SCc3ccccc3F)ncc2Cl)c1 | inconclusive: 70.8 µM [inhibitor, single point] |
| Cc1cc(=O)oc2cc(NC(=O)CCCC(=O)O)ccc12 | inconclusive: 100 µM [inhibitor, single point] |
| CCOc1ccc(NS(=O)(=O)c2ccc3c(c2)N(C(C)=O)CC3)cc1 | inactive |
| O=C(COC(=O)CSc1ccc([N+](=O)[O-])cc1)NCCc1ccccc1 | inactive |
| CCOC(=O)[C@H]1[C@H]2COc3ccc(Cl)cc3[C@@H]2N2C(=O)CN(Cc3ccc(F)cc3)C(=O)[C@@]12C | inactive |
| Cc1ccc(NC(=S)NCc2ccc3c(c2)OCO3)c(C)c1 | inactive |
| CCCc1cc(=O)[nH]c2nnc(SCC(=O)Nc3cccc(C)c3)n12 | inactive |
| Cc1cc(C)cc(OCCSc2nc(-c3ccc(C(C)(C)C)cc3)nc3cc(=O)[nH]n23)c1 | inconclusive: 17.8 µM [inhibitor, partial curve, poor fit] |
| COC(=O)c1c(NC(=O)COc2ccc(OC)cc2)sc2c1CCC(C)C2 (stereo unspecified) | inactive |
| C=C(C)C(=O)O[C@H]1C/C(C)=C\C(=O)/C=C(\C)[C@H](O)[C@@H]2OC(=O)C(=C)[C@@H]21 | active: 39.8 µM |
| COc1ccc2[nH]c(=O)c(CNc3ccc(C)cc3C)cc2c1 | inconclusive: 20 µM [inhibitor, full curve] |
| CCC(=O)N1c2ccccc2CC1C(=O)NCCc1ccc(OC)cc1OC (stereo unspecified) | inactive |
| CCOc1cc(/C=C2\COc3ccccc3C2=O)ccc1OCC(=O)N(C)C | inconclusive: 22.4 µM [inhibitor, full curve] |
| Fc1ccccc1C1c2cccn2CCN1C(=S)Nc1ccc(Br)cc1 (stereo unspecified) | inconclusive: 63.1 µM [inhibitor, partial curve, poor fit] |
| Cc1ccc2[nH]c(-c3ccccc3)c(CN3CCCC3)c(=O)c2c1 | inconclusive: 39.8 µM [inhibitor, single point] |
| Cc1ccc(-c2nc(CN3CCN(C(=O)C4CCCO4)CC3)cs2)cc1 (stereo unspecified) | inconclusive: 56.2 µM [inhibitor, partial curve, poor fit] |
| Cc1ccc(C(=O)Oc2oc(-c3ccco3)nc2C=Nc2ccc(Cl)cc2)cc1 | active: 1.78 µM |
| CS(=O)(=O)c1ccc(C(=O)OCc2nnc(-c3ccccc3)o2)cc1[N+](=O)[O-] | active: 1 µM |
| CCCOc1ccc(CSc2nnc(CCC)n2N)cc1 | inactive |
| O=C(NCCSCc1ccco1)Nc1ccccc1 | inconclusive: 31.6 µM [inhibitor, single point] |
| S=c1[nH]c2ccccc2o1 | inconclusive: 79.4 µM [inhibitor, single point] |
| COCCNC(=O)c1cc2cc3ccc(OC)cc3nc2o1 | active: 70.8 µM |
| Cc1ccc(NC(=O)c2nc(S(=O)(=O)Cc3ccccc3)ncc2Cl)cc1 | active: 8.91 µM |
| O=C(O)CNC(=O)c1ccc(OC(F)F)cc1 | inactive |

| Structure (SMILES) | Potency |
| --- | --- |
| CCNc1ccccc(C(=O)/C=C/c2ccc3c(c2)OCO3)c1=O | inconclusive: 31.6 µM [inhibitor, full curve, poor fit] |
| Cc1cc2c(cc1C)N[C@]1(C[C@H]3CCCC(=O)N4CC[C@@H](C1)[C@@H]34)C(=NC1CCCCC1)N2 | inactive |
| COc1ccccc1CNC(=O)COC(=O)CSc1ccc(C)c(C)c1 | inactive |
| CCCN1C(=O)/C(=c2\sc3nc(=O)c(Cc4ccc(C)cc4)nn3c2=O)c2ccccc21 | inconclusive: 31.6 µM [inhibitor, partial curve, poor fit] |
| O=C1c2cccc3c([N+](=O)[O-])ccc(c23)C(=O)N1c1nccs1 | inconclusive: 3.98 µM [inhibitor, full curve, poor fit] |
| O=C(c1ccco1)N1CCN(C(=O)c2cc(-c3ccccn3)nc3ccc(Cl)cc23)CC1 | inconclusive: 22.4 µM [inhibitor, single point] |
| Clc1ccccc1C1Nc2cccc3cccc(c23)N1 | inconclusive: 12.6 µM [inhibitor, full curve, poor fit] |
| O=C(OCN1C(=O)c2ccccc2C1=O)/C(=C\c1ccco1)NC(=O)c1ccccc1 | inconclusive: 56.2 µM [inhibitor, partial curve, poor fit] |
| CCOC(=O)c1c(NC(=O)c2ccco2)n(C2CCCCC2)c2nc3ccccc3nc12 | inconclusive: 3.16 µM [inhibitor, single point] |
| N#C/C(=C\c1ccccc1)C(=O)NNS(=O)(=O)c1cccc([N+](=O)[O-])c1 | active: 10 µM |
| O=C(CSc1nnc(-c2ccco2)o1)NC(=O)C1COc2ccccc2O1 (stereo unspecified) | inconclusive: 50.1 µM [inhibitor, partial curve, poor fit] |
| CC(C)n1c(CN(C)Cc2ccccc2)nc2c1c(=O)n(C)c(=O)n2C | inconclusive: 28.2 µM [inhibitor, single point] |
| CNc1cc(C(F)(F)F)nc(-c2ccccn2)n1 | inactive |
| N#Cc1ccc(N2CCCNCC2)nc1 | inconclusive: 44.7 µM [inhibitor, partial curve, poor fit] |
| CC(c1ccccc1)C1CC(=O)N(c2cc(Cl)ccn2)C1=O (stereo unspecified) | inactive |
| Cc1cc(NC(=O)c2sccc2C)n(-c2nc3ccccc3[nH]2)n1 | inactive |
| CC1CCCCC1NC(=O)COCc1cc(-c2cccs2)on1 (stereo unspecified) | active: 44.7 µM |
| Cc1cc(OCCOc2cccc3cccnc23)cc(C)c1Cl | inactive |
| CCN(Cc1ccccc1)S(=O)(=O)c1ccc2[nH]c3c(c2c1)CCCCC3 | inactive |
| Cc1noc(NS(=O)(=O)c2ccc(N/C=C\C(=O)c3cccs3)cc2)c1C | inconclusive: 79.4 µM [inhibitor, single point] |
| COc1ccc(CCN(C)C2CCCN(C(=O)c3ccnn3C)C2)cc1OC (stereo unspecified) | inconclusive: 89.1 µM [inhibitor, single point] |
| Cc1ccc(S(=O)(=O)c2nc(C(C)(C)C)oc2N2CCOCC2)cc1 | active: 0.562 µM |
| O=C(CCN1CCC(c2ccc(Cl)s2)=N1)c1ccc(Cl)s1 | active: 2.82 µM |
